Source: PubChem BioAssay AID1347417 (National Center for Advancing Translational Sciences (NCATS), 2020)
The whole screen tested about 120,000 compounds, of which about 5,300 (4.4%) were called active. The shares of active, inactive and inconclusive entries below differ from those in the screen. Calls come from the whole dose curve; as a rule, active = well fitted inhibition curve with a large enough effect; inconclusive = small, poorly fitted or top-dose-only effect; inactive = no such curve, though single readings can be large or run the other way. Where the call is inconclusive, the potency comes from a doubtful curve fit.

Assay: qHTS Primary assay for Inhibitors of Plasmodium falciparum Dd2 growth in vitro; note: nearly all actives have a fitted effect of over 65% in size;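 for activity, negative = inhibition: plate controls were DMSO vehicle for no effect and reference drug for full effect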
Conditions: P. falciparum Dd2 growth, SYBR Green, 72 h; activity, negative = inhibition: at 28.9 µM (top of the series) unless noted; series mostly up to 28.9 µM
Outline: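 Infected erythrocytes (Dd2, 0.3% parasitemia, 2.5% hematocrit final) are added to compound in RPMI-1640/Albumax II medium, grown 72 h at 37C in low oxygen, then lysed with saponin/Triton-X containing SYBR Green and read by fluorescence.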
Potency is the fitted concentration of half-maximal effect; tags give direction and shape of the fitted curve.

| SMILES | Potency | activity, negative = inhibition |
| --- | --- | --- |
| CCCN(CCC)CCCNC(=O)c1cn(CC)c2ccc(S(=O)(=O)N(C)C3CCCCC3)cc2c1=O | inactive | – |
| CCOC(=O)c1ccc(N2C(=O)c3n[nH]c(-c4ccco4)c3C2c2ccc(OCC)cc2)cc1 (stereo unspecified) | inconclusive: 11.2 µM [inhibitor, single point] | – |
| CN(C)CC1(O)CCCN(Cc2ccc(Oc3ccc(Cl)cc3)cc2)C1 (stereo unspecified) | inconclusive: 2.82 µM [inhibitor, partial curve, poor fit] | – |
| Cc1nonc1CC(=O)N1CCc2ccc(S(=O)(=O)NCCC(C)O)cc2C1 (stereo unspecified) | inactive | – |
| O=C(NCCn1cccc1-c1nc(-c2ccc3c(c2)OCO3)no1)c1ccccc1Cl | inconclusive: 17.8 µM [inhibitor, single point] | – |
| O=C(c1ccccc1F)N1CCC2(CC1)NCCc1c2[nH]c2ccccc12 | inconclusive: 7.08 µM [inhibitor, partial curve, poor fit] | – |
| CCOc1cc(CN2CCOc3ccc(C(=O)NCc4ccccc4F)cc3C2)ccc1O | inactive | – |
| Cc1ccccc1C(=O)N1CC2(Cc3ccccc3N([S+](C)(=O)[O-])C2)C1 | inactive | – |
| Cc1cc(NC(=O)c2ccc(CN3CC[C@H](O)C3)cc2)ccc1F | inconclusive: 8.91 µM [inhibitor, partial curve] | – |
| Cc1nn(-c2ccccc2)c(Oc2cccc(F)c2)c1CCC(=O)NC(C)C | inactive | – |
| CCN1C(=O)C2(CCN(C(=O)c3ccc(OC(C)C)cc3)CC2)c2ccccc21 | inconclusive: 17.8 µM [inhibitor, single point] | – |
| Cc1nc(-c2c3n(c(=O)n(Cc4ccc(C#N)cc4)c2=O)CCCCC3)no1 | inactive | – |
| Cn1nc(C2CCCCC2)cc1[C@H]1CN2CC[C@H]1C[C@@H]2CNC(=O)c1cccs1 | inconclusive: 0.1 µM [inhibitor, full curve, poor fit] | – |
| O=C(c1ccccc1)N1CCC(Cc2nc(-c3ccncc3)n[nH]2)CC1 | active: 1.26 µM | – |
| COc1ccc(CNC(=O)CN(c2ccc(C(C)C)cc2)S(=O)(=O)c2c(C)nn(C)c2C)cc1 | inconclusive: 12.6 µM [inhibitor, partial curve, poor fit] | – |
| COc1ccc(NC(=O)CSc2nc3ccccc3nc2N2CCC(C)CC2)cc1 | inconclusive: 17.8 µM [inhibitor, single point] | – |
| COc1cccc(N2CC3(C2)CN(c2ccccc2)C(=O)O3)c1 | inactive | – |
| COc1ccc2c(c1)-c1nc(NC(=O)c3ccc(OC)c(Br)c3)sc1CC2 | inconclusive: 11.2 µM [inhibitor, single point] | – |
| CC(=O)Nc1ccc(CN2CC3CCC(C2)N3c2ccc(C(F)(F)F)cc2)cc1 | inconclusive: 1.58 µM [inhibitor, partial curve] | – |
| COc1ccc(OC)c(NC(=O)c2c(NCc3sccc3C)sc3c2CCCCC3)c1 | inconclusive: 17.8 µM [inhibitor, single point] | – |
| CN(C)c1ccc(-c2nnc([C@H]3CCN(Cc4ccccn4)C3)o2)cc1 | inconclusive: 11.2 µM [inhibitor, partial curve, poor fit] | – |

| SMILES | Potency | activity, negative = inhibition |
| --- | --- | --- |
| Cc1cccc(-c2noc(CN(C3CCCCC3)S(=O)(=O)c3ccc(F)cc3)n2)c1 | inconclusive: 10 µM [inhibitor, single point] | – |
| COc1ccc(NC(=O)c2cnc3c(c2)N(C(=O)CCc2ccccc2)CCC3)cn1 | inconclusive: 15.8 µM [inhibitor, partial curve, poor fit] | – |
| COc1ccc(NC(=O)C2(C)CCc3cnc(N4CCOCC4)nc32)cn1 (stereo unspecified) | inactive | – |
| COCCOC1CN(C2CCN(S(=O)(=O)c3cccs3)CC2)C12CCCCC2 (stereo unspecified) | inconclusive: 10 µM [inhibitor, single point] | – |
| CC1=C[C@@H](CNC(=O)C2CCCCC2)[C@H](C(C)C)C[C@H]1Cc1nc2ccc(F)cc2[nH]1 | inconclusive: 31.6 µM [inhibitor, single point] | – |
| COCCN1C(=O)c2ccccc2C(C(=O)Nc2nc3ccccc3s2)C12CCCC2 (stereo unspecified) | active: 6.31 µM | – |
| O=C1NCC2(CCN(Cc3cccc4ccccc34)CC2)Oc2ccccc21 | inconclusive: 10 µM [inhibitor, single point] | – |
| CCCCS(=O)(=O)Nc1ccc([C@H]2OCC(=O)N(Cc3ccccc3)[C@@H]2CO)cc1 | inconclusive: 12.6 µM [inhibitor, single point] | – |
| Cn1ccnc1CNc1nccc(-c2cnn(-c3ccccc3F)c2)n1 | inactive | – |
| O=[S+]([O-])(c1cccs1)N1CC(Oc2ccc(F)c(F)c2)C1 | – | inconclusive: -41% [inhibitor] |
| COc1ccccc1NC(=O)CCn1nc(-c2ccccc2OC)c2c(C)cc(C)nc21 | inconclusive: 10 µM [inhibitor, single point] | – |
| Cc1ccccc1NC(=O)Nc1nnc(N2CCCCCC2)s1 | inconclusive: 0.112 µM [inhibitor, full curve] | – |
| CCC(=O)N1CCc2cc(Br)cc(S(=O)(=O)CCC(=O)N3CCN(c4ccc(F)cc4)CC3)c21 | inconclusive: 17.8 µM [inhibitor, single point] | – |
| COc1ccc(NC(=O)CSC2=Nc3ccccc3C3=NC(CCC(=O)NCc4cccs4)C(=O)N23)cc1 (stereo unspecified) | inconclusive: 10 µM [inhibitor, single point] | – |
| CC(C)(C(=O)N1C[C@H](C2CC2)[C@@H](N)C1)c1ccccc1 | active: 6.31 µM | – |
| Cc1ncc(CO)c2c1Oc1nc(-c3ccc(F)cc3)nc(SCC(=O)N3CCCCC3)c1C2 | inconclusive: 17.8 µM [inhibitor, single point] | – |
| Cn1cc(CN2CCOC[C@H]2c2nc(C(C)(C)C)co2)c2ccccc21 | inconclusive: 11.2 µM [inhibitor, partial curve, poor fit] | – |
| Cc1cc(NC(=O)c2cc(-c3cccc(Cl)c3)on2)nn1Cc1ccc(Cl)cc1 | inconclusive: 11.2 µM [inhibitor, single point] | – |
| COc1cccc(NC(=O)CCC2CCN(C(=O)c3cc4ccccc4cn3)CC2)c1 | inactive | – |
| C=CCCC(CN1CCCOCC1)Oc1ncc(Cl)cn1 (stereo unspecified) | inconclusive: 11.2 µM [inhibitor, partial curve, poor fit] | – |
